According to patent US20250382361A1, “AFFIBODIES, HYDROGELS CONTAINING AFFIBODIES, AND USES THEREOF” (University of Oregon, priority 2024, published 2025):

Tested on: NIH/3T3-Luc cells
Experiment: PDGF bioactivity luciferase reporter assay
Format: cell-based
Conditions: affibody co-incubated with rhPDGF-BB, FIGS. 30C-30F
Protocol: NIH/3T3 fibroblast cells (ATCC) were thawed, seeded at 10,000 cell/cm^2, and expanded in growth medium consisting of DMEM containing 10% (v/v) fetal bovine serum (R&D Systems, Minneapolis, MN). Cultures were routinely maintained at 37° C. and 5% CO2 and passaged at 60-70% confluence. After three passages of expansion, NIH/3T3 cells were grown in Eagle's Minimal Essential Medium (EMEM, ATCC) for a single passage prior to transfection. Transfection mixtures were prepared according to the manufacturer's protocols. Briefly, 2500 ng of luciferase reporter plasmid pGL4.33 [luc2P/SRE/Hygro] (Promega), which contains a serum response element that regulates luciferase expression as a function of Rhoa GTPase activation and multiple mitogen activated phosphorylated kinase (MAPK) pathways, was combined with 12.5 μL of Lipofectamine Plus™ reagent and 227.5 μL of Opti-MEM buffer (Thermo Fisher Scientific, Waltham, MA) and mixed for 10 minutes at room temperature. Concurrently, Lipofectamine Plus™ mix was prepared by combining 14.3 μL of Lipofectamine Plus™ solution with 271.7 μL of Opti-MEM buffer solution for 10 minutes. Lipofectamine Plus™ mix was then combined with Plus Reagent DNA mix at a 1:1 ratio and incubated for an additional 15 minutes. During this step, NIH/3T3 cells were trypsinized and seeded into 96-well plates at 40,000 cells/cm^2 in 135 μl of EMEM. Cells were then transfected by adding 65 μL of Lipofectamine Plus Reagent DNA mix per well and incubated for 48 h at 37° C. and 5% CO2. Individual wells were combined to establish a polyclonal population of transfected cells. Cells were expanded and passaged 4 times between 60-70% confluency in growth medium containing 200 μg/mL hygromycin (selective medium) to remove the transiently transfected population, then continually passaged in selective medium to maintain the stably transfected NIH/3T3 cell population. Stably transfected NIH/3T3 cells, hereafter referred to as NIH/3T3-Luc, were expanded and stored in liquid nitrogen at post-transfection passage 5 until use.
NIH/3T3-Luc cells were seeded at 31,250 cells/cm^2 and incubated in 100 μL of growth medium overnight in 96 well plates. […] Luminescence was then measured using SpectraMax 13 plate reader (Molecular Devices, San Jose, CA).
PDGF bioactivity was assessed using NIH/3T3 cells transfected with a firefly luciferase gene reporter plasmid that links multiple ERK1/2 signaling pathways, including PDGFRβ signaling, to luciferase expression through a serum response element under the regulation of ERK1/2 (FIG. 30A). […] Firefly luciferase expression was assessed via the conversion of 5′-fluoroluciferin to oxyfluoroluciferin, which generates a stable luminescent output correlated to firefly luciferase concentration. […]

**Q.** For “AEAKYAFELWEAQHEIQQLPNLRPDQIAAFAMALYDDPSQSSELLSEAKKLNDSQAPK [SEQ ID NO: 59]”, which “luciferase expression vs rhPDGF-BB treatment only” value is on record?
**A.** decreased
